The antibiotic and cytotoxicity screens of Wong et al. (2023)
The other results are listed elsewhere or left out.

Tests used:
[1] = system: HSkMC (human skeletal muscle cells); test: cytotoxicity call (relative viability < 0.9); conditions: 10 µM
[2] = system: HepG2; test: cytotoxicity call (relative viability < 0.9); conditions: 10 µM
[3] = system: S. aureus RN4220; test: growth inhibition call (relative growth <= 0.2); conditions: 50 µM

Compound | cytotoxicity call [1] | cytotoxicity call [2] | growth inhibition call [3]
C[C@@H]1CCCCO[C@@H](CN(C)C(=O)Cc2ccccc2)[C@@H](C)CN([C@@H](C)CO)C(=O)c2cc(NS(=O)(=O)c3cccs3)ccc2O1 | inactive | inactive | inactive
Cc1ccc(S(=O)(=O)Nc2ccc3c(c2)C(=O)N([C@H](C)CO)C[C@@H](C)[C@H](CN(C)Cc2ccccc2)OCCCC[C@H](C)O3)cc1 | inactive | active | inactive
CC(=O)N(C)C[C@@H]1Oc2ncc(C#C[C@H](C)O)cc2C(=O)N([C@@H](C)CO)C[C@H]1C | inactive | inactive | inactive
COc1ccc(NC(=O)Nc2cccc3c2O[C@H](CN(C)C(=O)Nc2ccc(C(F)(F)F)cc2)[C@@H](C)CN([C@H](C)CO)C3=O)cc1 | inactive | inactive | inactive
C[C@H]1CN([C@@H](C)CO)C(=O)c2cc(NS(=O)(=O)c3cccs3)ccc2O[C@H]1CN(C)Cc1ccc(-c2ccccc2)cc1 | inactive | inactive | inactive
C[C@@H]1CCCCO[C@H](CN(C)C(=O)CCC(F)(F)F)[C@@H](C)CN([C@@H](C)CO)C(=O)c2cc(NC(=O)CCCCCC(=O)Nc3ccccc3N)ccc2O1 | inactive | inactive | inactive
C[C@@H]1CN([C@@H](C)CO)C(=O)Cc2cc(NS(=O)(=O)c3ccc(F)cc3)ccc2O[C@H]1CN(C)Cc1ccncc1 | inactive | inactive | inactive
COc1ccc(S(=O)(=O)N(C)C[C@@H]2Oc3ccc(NC(=O)CCN4CCOCC4)cc3CC(=O)N([C@@H](C)CO)C[C@H]2C)cc1 | inactive | inactive | inactive
C[C@H](C(=O)O)N1C(=O)CSC1=O | inactive | inactive | inactive
C[C@H]1CN([C@@H](C)CO)C(=O)c2cc(NC(=O)CCN3CCOCC3)ccc2O[C@@H]1CN(C)S(=O)(=O)c1ccc(F)cc1 | inactive | inactive | inactive
O=C(N[C@H]1CC[C@@H](CCNS(=O)(=O)c2ccccc2)O[C@H]1CO)c1cnccn1 | inactive | inactive | inactive
CCCNC(=O)Nc1ccc2c(c1)OC[C@H](C)N(C(=O)C1CCOCC1)C[C@H](C)[C@@H](OC)CN(C)C2=O | inactive | inactive | inactive
Cn1cnc(S(=O)(=O)N[C@H]2CC[C@@H](CC(=O)Nc3ccccc3)O[C@@H]2CO)c1 | inactive | inactive | inactive
CO[C@@H]1CN(C)C(=O)c2ccc(NC(=O)C3CCOCC3)cc2OC[C@@H](C)N(C(=O)C2CCOCC2)C[C@H]1C | inactive | inactive | inactive
COc1ccc(S(=O)(=O)Nc2ccc3c(c2)CC(=O)N([C@@H](C)CO)C[C@H](C)[C@@H](CN(C)Cc2ccc(-c4ccccc4)cc2)O3)cc1 | inactive | inactive | inactive
O=C(CN1CCOCC1)N[C@@H]1CC[C@@H](CCNS(=O)(=O)c2ccccc2F)O[C@H]1CO | inactive | inactive | inactive
C[C@H](CO)N1C[C@H](C)[C@@H](CN(C)Cc2ccc(C(F)(F)F)cc2)Oc2ccc(NC(=O)CCC(F)(F)F)cc2C1=O | inactive | inactive | inactive
Cc1cc2nc3c(=O)[nH]c(=O)nc-3n(C[C@H](O)[C@H](O)[C@H](O)COP(=O)(O)O)c2cc1C | inactive | inactive | inactive
C[C@@H]1CN([C@@H](C)CO)C(=O)c2cc(NC(=O)Nc3cccc4ccccc34)ccc2O[C@@H](C)CCCCO[C@@H]1CN(C)CC1CCCCC1 | active | active | inactive
COc1ccccc1-c1ccc2c(c1)O[C@H](CN(C)C(=O)c1ccncc1)[C@H](C)CN([C@H](C)CO)S2(=O)=O | inactive | inactive | inactive
Cc1ccc(S[C@]2(C(=O)NC3CC3)CC(=O)N(Cc3ccccc3Cl)[C@@H]2c2ccc(CO)cc2)cc1 | inactive | inactive | inactive
CCS(=O)(=O)Nc1ccc2c(c1)C(=O)N(C)C[C@H](OC)[C@H](C)CN(Cc1nccs1)[C@@H](C)CO2 | inactive | inactive | inactive
CNc1ccc(-c2nc(N3CCOCC3)c3sc(CN(C)c4ncc(C(=O)NO)cn4)cc3n2)cn1 | active | active | inactive
COCC#Cc1ccc2c(c1)O[C@H](CN(C)S(=O)(=O)c1ccc(F)cc1)[C@H](C)CN([C@H](C)CO)S2(=O)=O | inactive | inactive | inactive
C[C@@H]1CN([C@H](C)CO)C(=O)CCCn2cc(nn2)CO[C@@H]1CN(C)S(=O)(=O)c1cn(C)cn1 | inactive | inactive | inactive
